According to patent US20240158515A1, “ANTI-FGFR3 ANTIBODIES AND ANTIGEN-BINDING FRAGMENTS AND METHODS OF USE THEREOF” (Regeneron Pharmaceuticals, Inc., priority 2022, published 2024):

How the values were obtained:
Settings in all cases: 25° C.
[1] = molecular target: T1, dimeric human FGFR3b (hFGFR3b.mFc, REGN3153) (Homo sapiens, UniProt P22607); experiment: Biacore SPR binding kinetics, dimeric human FGFR3b to captured antibodies
T1 construct: REGN3153 (human FGFR3b expressed with a C-terminal murine Fc tag)
Experimental: (§1) Biacore binding kinetics of anti-FGFR3 antibodies, in an antibody capture format, to monomeric human FGFR3b, cynomolgus FGFR3b, murine FGFR3b, human FGFR3c, and dimeric human FGFR3b ecto domain recombinant proteins at 25° C. were analyzed.
(§2) Equilibrium dissociation constants (KD values) for human FGFR3b expressed with a C-terminal myc-myc-hexahistidine tag (hFGFR3b.mmH, REGN3152) or cynomolgus FGFR3b expressed with a C-terminal myc-myc-hexahistidine tag (mfFGFR3b.mmH, REGN3521), or murine FGFR3b expressed with a C-terminal myc-myc-hexahistidine tag (mFGFR3b.mmH, REGN3215) or human FGFR3c expressed with a C-terminal myc-myc-hexahistidine tag (hFGFR3c.mmH, REGN3155) or human FGFR3b expressed with an C-terminal murine Fc tag (hFGFR3b.mFc, REGN3153) binding to purified anti-FGFR3 antibodies were determined using a real-time surface plasmon resonance biosensor technology using a Biacore 3000 or Biacore 4000 instrument. The CM5 Biacore sensor surface was derivatized by amine coupling with a monoclonal mouse anti-human Fc monoclonal antibody (REGN2567). All Biacore binding studies were performed in a buffer composed of 0.01M HEPES pH 7.4, 0.15 M NaCl, 3 mM EDTA, 0.05% v/v Surfactant P20 (HBS-EP running buffer). Different concentrations of monomeric proteins prepared in HBS-EP running buffer (ranging from 90 nM to 3.33 nM in 3-fold serial dilutions) or dimeric protein (hFGFR3b.mFc, REGN3153) prepared in HBS-EP running buffer (ranging from 30 to 10 nM in 3-fold serial dilution) were injected over the captured anti-FGFR3 antibodies at a flow rate of 30 μL/minute. Antibody-reagent association was monitored for 5 minutes while dissociation in HBS-EP running buffer was monitored for 10 minutes. At the end of each cycle, the anti-FGFR3 antibody capture surface was regenerated using a 10 sec injection of 20 mM phosphoric acid. All binding kinetics experiments were performed at 25° C.
(§3) The specific SPR-Biacore sensorgrams were obtained by a double referencing procedure. The double referencing was performed by first subtracting the signal of each injection over a reference surface (anti-hFc) from the signal over the experimental surface (anti-hFc-captured anti-FGFR3 antibodies) thereby removing contributions from refractive index changes. In addition, running buffer injections were performed to allow subtraction of the signal changes resulting from the dissociation of captured antibodies from the coupled anti-hFc surface. Kinetic association (ka) and dissociation (kd) rate constants were determined by fitting the real-time sensorgrams to a 1:1 binding model using Scrubber v2.0c curve fitting software. Binding dissociation equilibrium constants (KD) and dissociative half-lives (t½) were calculated from the kinetic rate constants as: […]

[2] = molecular target: T2, murine FGFR3b (mFGFR3b.mmH, REGN3215) (Mus musculus, UniProt Q61851); experiment: Biacore SPR binding kinetics, monomeric murine FGFR3b to captured antibodies
T2 construct: REGN3215 (murine FGFR3b expressed with a C-terminal myc-myc-hexahistidine tag)
Experimental: as §1, §2, §3

[3] = test system: cynomolgus FGFR3b (mfFGFR3b.mmH, REGN3521); experiment: Biacore SPR binding kinetics, monomeric cynomolgus FGFR3b to captured antibodies
Experimental: as §1, §2, §3

[4] = molecular target: T3, human FGFR3b (hFGFR3b.mmH, REGN3152) (Homo sapiens, UniProt P22607); experiment: Biacore SPR binding kinetics, monomeric human FGFR3b to captured antibodies
T3 construct: REGN3152 (human FGFR3b expressed with a C-terminal myc-myc-hexahistidine tag)
Experimental: as §1, §2, §3

[5] = molecular target: T4, human FGFR3c (hFGFR3c.mmH, REGN3155) (Homo sapiens, UniProt P22607); experiment: Biacore SPR binding kinetics, monomeric human FGFR3c to captured antibodies
T4 construct: REGN3155 (human FGFR3c expressed with a C-terminal myc-myc-hexahistidine tag)
Experimental: as §1, §2, §3

T1 sequence (P22607 with tags, fused parts or gaps isoform P22607-2): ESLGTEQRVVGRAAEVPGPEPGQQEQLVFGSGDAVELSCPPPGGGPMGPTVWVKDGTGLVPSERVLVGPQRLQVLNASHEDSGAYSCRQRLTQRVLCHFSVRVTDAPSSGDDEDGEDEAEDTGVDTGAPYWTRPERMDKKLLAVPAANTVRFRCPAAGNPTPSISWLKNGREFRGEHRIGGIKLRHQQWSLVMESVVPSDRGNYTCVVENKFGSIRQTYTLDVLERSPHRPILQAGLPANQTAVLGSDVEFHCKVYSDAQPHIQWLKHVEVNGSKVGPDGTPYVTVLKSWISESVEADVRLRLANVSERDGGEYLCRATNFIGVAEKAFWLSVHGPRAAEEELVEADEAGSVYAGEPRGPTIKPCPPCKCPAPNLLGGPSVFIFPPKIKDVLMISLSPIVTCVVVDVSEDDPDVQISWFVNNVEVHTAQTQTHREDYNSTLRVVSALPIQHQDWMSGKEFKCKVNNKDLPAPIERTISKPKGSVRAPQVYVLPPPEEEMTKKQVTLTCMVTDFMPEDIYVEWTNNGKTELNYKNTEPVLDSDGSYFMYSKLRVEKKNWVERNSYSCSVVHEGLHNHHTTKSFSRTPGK
T3 sequence (P22607 with tags, fused parts or gaps isoform P22607-2): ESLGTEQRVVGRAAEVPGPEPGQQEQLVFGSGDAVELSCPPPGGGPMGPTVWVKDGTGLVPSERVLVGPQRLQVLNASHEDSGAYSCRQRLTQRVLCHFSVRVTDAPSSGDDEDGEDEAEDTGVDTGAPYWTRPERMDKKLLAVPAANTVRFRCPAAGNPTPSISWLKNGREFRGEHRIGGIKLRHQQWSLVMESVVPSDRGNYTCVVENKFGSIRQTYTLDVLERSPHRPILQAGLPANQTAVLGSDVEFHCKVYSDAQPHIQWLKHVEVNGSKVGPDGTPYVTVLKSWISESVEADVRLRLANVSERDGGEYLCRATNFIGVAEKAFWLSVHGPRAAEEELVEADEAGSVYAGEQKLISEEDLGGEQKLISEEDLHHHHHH
T2 sequence (Q61851 with tags, fused parts or gaps isoform Q61851-2): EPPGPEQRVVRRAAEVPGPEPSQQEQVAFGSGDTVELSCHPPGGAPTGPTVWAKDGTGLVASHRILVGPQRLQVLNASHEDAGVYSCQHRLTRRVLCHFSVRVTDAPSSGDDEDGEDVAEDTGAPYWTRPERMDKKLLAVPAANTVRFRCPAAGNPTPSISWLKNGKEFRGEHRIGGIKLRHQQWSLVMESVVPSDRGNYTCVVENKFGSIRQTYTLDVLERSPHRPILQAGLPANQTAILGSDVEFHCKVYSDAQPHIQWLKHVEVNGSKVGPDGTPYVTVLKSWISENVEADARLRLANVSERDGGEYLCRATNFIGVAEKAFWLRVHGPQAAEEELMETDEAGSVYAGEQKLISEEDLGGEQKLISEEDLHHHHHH
T4 sequence (P22607 with tags, fused parts or gaps): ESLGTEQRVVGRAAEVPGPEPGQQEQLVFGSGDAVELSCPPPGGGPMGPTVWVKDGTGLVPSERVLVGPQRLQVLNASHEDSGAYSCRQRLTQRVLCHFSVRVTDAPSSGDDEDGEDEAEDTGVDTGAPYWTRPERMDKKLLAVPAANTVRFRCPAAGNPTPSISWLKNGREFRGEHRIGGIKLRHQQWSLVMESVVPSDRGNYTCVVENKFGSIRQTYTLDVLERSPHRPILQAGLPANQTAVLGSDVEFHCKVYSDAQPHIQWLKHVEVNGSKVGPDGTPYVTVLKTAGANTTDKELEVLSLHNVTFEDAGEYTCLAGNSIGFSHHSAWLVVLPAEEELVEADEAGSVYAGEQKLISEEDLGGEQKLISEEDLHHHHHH

Molecule	ka [1] [M⁻¹ s⁻¹]	kd [1] [s⁻¹]	ka [2] [M⁻¹ s⁻¹]	kd [2] [s⁻¹]	ka [3] [M⁻¹ s⁻¹]	kd [3] [s⁻¹]	ka [4] [M⁻¹ s⁻¹]	kd [4] [s⁻¹]	ka [5] [M⁻¹ s⁻¹]	kd [5] [s⁻¹]
H4H30071P: anti-FGFR3 antibody; HCVR/LCVR SEQ ID NOs: 42 & 50; HC/LC 58 & 60 (antibody, anti-FGFR3 antibody; HC/LC 58 & 60) heavy: QVQLQQSGPGLVKPSQTLSLTCAISGDSVSRNSAAWNWIRQSPSSGLEWLGRTYYRSKWFYDYAISVKSRITVNPDTSKNQFSLHLNSVTPEDTAVYYCARGYGGYEDYFDYWGQGTLVTVSSASTKGPSVFPLAPCSRSTSESTAALGCLVKDYFPEPVTVSWNSGALTSGVHTFPAVLQSSGLYSLSSVVTVPSSSLGTKTYTCNVDHKPSNTKVDKRV[sequence of human IgG4 Fc with S228P (EU numbers) not given] light: DIQMTQSPSSVSASVGDRVTITCRASQGISSWLAWYQQKPGKAPKLLIYGASSLQSGVPSRFSGSGSGTDFTLTISSLQPEDFATYFCQQGSSFPYTFGQGTKLEIKRTVAAPSVFIFPPSDEQLKSGTASVVCLLNNFYPREAKVQWKVDNALQSGNSQESVTEQDSKDSTYSLSSTLTLSKADYEKHKVYACEVTHQGLSSPVTKSFNRGEC	322000	≤1e-05	220000	0.00169	180000	2.22e-05	216000	2.96e-05	–	–
H4H30076P: anti-FGFR3 antibody; HCVR/LCVR SEQ ID NOs: 122 & 130; HC/LC 136 & 138 (antibody, anti-FGFR3 antibody; HC/LC 136 & 138) heavy: EVQLVESGGGLVQPGGSLRLSCAASGFTVSSNYMSWVRQAPGKGLEWVSIIYSGGHTYYSDSVKGRFTISRHNSKNTLYLQMNSLRGGDTAVYYCARGYTSGWYGFDFWGQGTLVTVSSASTKGPSVFPLAPCSRSTSESTAALGCLVKDYFPEPVTVSWNSGALTSGVHTFPAVLQSSGLYSLSSVVTVPSSSLGTKTYTCNVDHKPSNTKVDKRV[sequence of human IgG4 Fc with S228P (EU numbers) not given] light: DIQMTQSPSSVSASVGDRVTITCRASQGISTWLAWYQQKPGKAPKLLIYAASSLQSGVPSRFSGTGSGTDFTLTISSLQPEDFATYYCQQTNSFPWTFGQGTKVEIKRTVAAPSVFIFPPSDEQLKSGTASVVCLLNNFYPREAKVQWKVDNALQSGNSQESVTEQDSKDSTYSLSSTLTLSKADYEKHKVYACEVTHQGLSSPVTKSFNRGEC	407000	≤1e-05	256000	3.61e-05	200000	3.3e-05	236000	4.39e-05	–	–
H4H30061P: anti-FGFR3 antibody; HCVR/LCVR SEQ ID NOs: 199 & 207; HC/LC 215 & 217 (antibody, anti-FGFR3 antibody; HC/LC 215 & 217) heavy: EVQLVESGGGLAQPGGSLKLSCEASGFTFSDSAMHWVRQASGKGLEWVGRIRSKANSYATGYAASVKGRFTISRDDSKNMAFLEMNSLKTEDTAVYYCLRQTYGDPWGQGTLVTVSSASTKGPSVFPLAPCSRSTSESTAALGCLVKDYFPEPVTVSWNSGALTSGVHTFPAVLQSSGLYSLSSVVTVPSSSLGTKTYTCNVDHKPSNTKVDKRV[sequence of human IgG4 Fc with S228P (EU numbers) not given] light: DVVMTQSPLSLSVTLGQPASISCRSSLSLVYSDGNNYLNWFQQRPGQSPRRLLYKVFNRDSGVPDRFSGSGSGTDFTLKISRVEAEDVGVYYCMQGTHWPWTFGQGTKVEIKRTVAAPSVFIFPPSDEQLKSGTASVVCLLNNFYPREAKVQWKVDNALQSGNSQESVTEQDSKDSTYSLSSTLTLSKADYEKHKVYACEVTHQGLSSPVTKSFNRGEC	231000	≤1e-05	–	–	–	9.83e-05	173000	8.74e-05	151000	7.92e-05
H4H30045P: anti-FGFR3 antibody; HCVR/LCVR SEQ ID NOs: 179 & 187; HC/LC 195 & 197 (antibody, anti-FGFR3 antibody; HC/LC 195 & 197) heavy: QVQLVQSGAEVKKPGASVKVSCKTSGYRFVNYGFSWVRQAPGQGLEWMGWISPYNGNTNYIQNLQDRITMTTDTSTNTAYMELTNLRSDDTAVYYCATLTGVHFDYWGQGTLVTVSSASTKGPSVFPLAPCSRSTSESTAALGCLVKDYFPEPVTVSWNSGALTSGVHTFPAVLQSSGLYSLSSVVTVPSSSLGTKTYTCNVDHKPSNTKVDKRV[sequence of human IgG4 Fc with S228P (EU numbers) not given] light: AIQMTQSPSSLSASVGDRVTITCRASQGIRNDLGWYQQKPGKAPNLLIFETSRLQSGVPSRFSGSGSGTDFTLTINSLQPEDFATYYCLQDYNYPWTFGQGTKVEIKRTVAAPSVFIFPPSDEQLKSGTASVVCLLNNFYPREAKVQWKVDNALQSGNSQESVTEQDSKDSTYSLSSTLTLSKADYEKHKVYACEVTHQGLSSPVTKSFNRGEC	277000	0.000161	–	–	429000	0.00882	385000	0.00624	381000	0.00746
